# Results reported in the supplement of paper PMC9588766.
# Structures can show the parent of a compound that is named as a salt. Over roughly 1,900 compounds, “cell viability of compound + 1 nM pemigatinib relative to pemigatinib-only (DMSO) wells” has its median near 0.95; the lowest 2% begin near 0.22. The list shows a part of the results.
# System: PDC-DUC18828
# Assay: cell viability of compound + 1 nM pemigatinib relative to pemigatinib-only (DMSO) wells (fraction); PDC-DUC18828 is a patient-derived cholangiocarcinoma cell line; higher = less growth inhibition
# Details: first compound 1 µM; pemigatinib concentration 1 nM; 72 h
# Description: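 Selleck Bioactive library screen in the patient-derived FGFR2 fusion-positive ICC cell line PDC-DUC18828 (500 cells/well). Each compound was tested at 1 uM with 1 nM pemigatinib, in triplicate, for 72 h. Viability was read by CellTiter-Glo and normalised to plate DMSO controls. Value is the paper's averaged normalised viability.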
row,SMILES,cell viability
1,CN1CCN(CCCNc2ncc(Cl)c(-c3cc4c(C(=O)NC5CC5)cccc4s3)n2)CC1 + CCN1C(=O)N(c2c(F)c(OC)cc(OC)c2F)Cc2cnc3[nH]c(CN4CCOCC4)cc3c21 [pemigatinib],0.897
2,NC(=O)c1noc([C@H](CCCC2CCCCC2)CC(=O)NO)n1 + CCN1C(=O)N(c2c(F)c(OC)cc(OC)c2F)Cc2cnc3[nH]c(CN4CCOCC4)cc3c21 [pemigatinib],1.04
3,NC1(c2ccc(-c3nc4ccn5c(=O)[nH]nc5c4cc3-c3ccccc3)cc2)CCC1 + CCN1C(=O)N(c2c(F)c(OC)cc(OC)c2F)Cc2cnc3[nH]c(CN4CCOCC4)cc3c21 [pemigatinib],0.776
4,CCOc1cn(-c2ccc(F)cc2C)nc1C(=O)Nc1ccc(Oc2ccnc3cc(OC)c(OC)cc23)c(F)c1 + CCN1C(=O)N(c2c(F)c(OC)cc(OC)c2F)Cc2cnc3[nH]c(CN4CCOCC4)cc3c21 [pemigatinib],0.84
5,C#C[C@]1(O)CC[C@H]2[C@@H]3CCC4=CC(=O)CC[C@@H]4[C@H]3CC[C@@]21C [Norethindrone] + CCN1C(=O)N(c2c(F)c(OC)cc(OC)c2F)Cc2cnc3[nH]c(CN4CCOCC4)cc3c21 [pemigatinib],1.02
6,C=CCc1cc(OC)c(O)c(C(=O)NCCO)c1 [Alibendol] + CCN1C(=O)N(c2c(F)c(OC)cc(OC)c2F)Cc2cnc3[nH]c(CN4CCOCC4)cc3c21 [pemigatinib],1.03
7,Nc1ccc(S(=O)(=O)Nc2ncccn2)cc1 [Sulfadiazine] + CCN1C(=O)N(c2c(F)c(OC)cc(OC)c2F)Cc2cnc3[nH]c(CN4CCOCC4)cc3c21 [pemigatinib],1
8,CCCC(C)NC(=O)c1ccc(Cl)c(Cl)c1 (centres undefined) + CCN1C(=O)N(c2c(F)c(OC)cc(OC)c2F)Cc2cnc3[nH]c(CN4CCOCC4)cc3c21 [pemigatinib],1.02
9,CNC1CCC(N(Cc2cccc(-c3ccncc3)c2)C(=O)c2sc3ccccc3c2Cl)CC1 (centres undefined) [Smoothened Agonist (SAG) HCl] + CCN1C(=O)N(c2c(F)c(OC)cc(OC)c2F)Cc2cnc3[nH]c(CN4CCOCC4)cc3c21 [pemigatinib],0.933
10,C#C[C@]1(OC(C)=O)CC[C@H]2[C@@H]3CCC4=C[C@@H](OC(C)=O)CC[C@@H]4[C@H]3CC[C@@]21C [Ethynodiol diacetate] + CCN1C(=O)N(c2c(F)c(OC)cc(OC)c2F)Cc2cnc3[nH]c(CN4CCOCC4)cc3c21 [pemigatinib],0.911
11,COC(=O)N1CCN(Cc2cccc(NC(=O)Nc3ccc(C)nc3)c2F)CC1 + CCN1C(=O)N(c2c(F)c(OC)cc(OC)c2F)Cc2cnc3[nH]c(CN4CCOCC4)cc3c21 [pemigatinib],0.985
12,O=C(O)CSc1cc(NS(=O)(=O)c2ccc(Br)cc2)c2ccccc2c1O + CCN1C(=O)N(c2c(F)c(OC)cc(OC)c2F)Cc2cnc3[nH]c(CN4CCOCC4)cc3c21 [pemigatinib],0.949
13,Nc1ccc(O)c(C(=O)O)c1 [Mesalamine] + CCN1C(=O)N(c2c(F)c(OC)cc(OC)c2F)Cc2cnc3[nH]c(CN4CCOCC4)cc3c21 [pemigatinib],0.947
14,COc1cc2c(cc1O)CC[C@@H]1[C@@H]2CC[C@]2(C)[C@@H](O)CC[C@@H]12 [2-Methoxyestradiol (2-MeOE2)] + CCN1C(=O)N(c2c(F)c(OC)cc(OC)c2F)Cc2cnc3[nH]c(CN4CCOCC4)cc3c21 [pemigatinib],0.516
15,NC(=O)c1cccc2[nH]c(-c3ccc(C4CCCN4)cc3F)nc12 (centres undefined) + CCN1C(=O)N(c2c(F)c(OC)cc(OC)c2F)Cc2cnc3[nH]c(CN4CCOCC4)cc3c21 [pemigatinib],0.961
16,COC(=O)C1=C(C)NC(C)=C(C(=O)OC)C1c1ccccc1[N+](=O)[O-] [Nifedipine] + CCN1C(=O)N(c2c(F)c(OC)cc(OC)c2F)Cc2cnc3[nH]c(CN4CCOCC4)cc3c21 [pemigatinib],0.965
17,CC(C)NC[C@H](O)COc1ccc(CCOCC2CC2)cc1 [Levobetaxolol HCl] + CCN1C(=O)N(c2c(F)c(OC)cc(OC)c2F)Cc2cnc3[nH]c(CN4CCOCC4)cc3c21 [pemigatinib],0.96
18,NC(=O)c1ncn([C@@H]2O[C@H](CO)[C@@H](O)[C@H]2O)c1N [Acadesine] + CCN1C(=O)N(c2c(F)c(OC)cc(OC)c2F)Cc2cnc3[nH]c(CN4CCOCC4)cc3c21 [pemigatinib],0.951
19,CC1=C(C(=O)OC2CCCCC2)C(c2ccc([N+](=O)[O-])cc2)C2=C(CC(C)(C)CC2=O)N1 (centres undefined) + CCN1C(=O)N(c2c(F)c(OC)cc(OC)c2F)Cc2cnc3[nH]c(CN4CCOCC4)cc3c21 [pemigatinib],0.974
20,C[C@@H]1C(=O)O[C@H]2C[C@@]34[C@H]5C[C@@H](C(C)(C)C)[C@]36[C@@H](OC(=O)[C@@H]6O)O[C@@]4(C(=O)O5)[C@]21O [Ginkgolide A] + CCN1C(=O)N(c2c(F)c(OC)cc(OC)c2F)Cc2cnc3[nH]c(CN4CCOCC4)cc3c21 [pemigatinib],1
21,O=C(O)C(Cc1ccccc1[N+](=O)[O-])=NNc1nc(-c2ccc(Cl)c(Cl)c2)cs1 (mixture of isomers) + CCN1C(=O)N(c2c(F)c(OC)cc(OC)c2F)Cc2cnc3[nH]c(CN4CCOCC4)cc3c21 [pemigatinib],0.955
22,CC(c1cc2ccccc2s1)N(O)C(N)=O (centres undefined) [Zileuton] + CCN1C(=O)N(c2c(F)c(OC)cc(OC)c2F)Cc2cnc3[nH]c(CN4CCOCC4)cc3c21 [pemigatinib],1.01
23,CC(C)(F)C[C@H](N[C@@H](c1ccc(-c2ccc(S(C)(=O)=O)cc2)cc1)C(F)(F)F)C(=O)NC1(C#N)CC1 [Odanacatib (MK-0822)] + CCN1C(=O)N(c2c(F)c(OC)cc(OC)c2F)Cc2cnc3[nH]c(CN4CCOCC4)cc3c21 [pemigatinib],1.02
24,COc1cc(C)c(/C=C/C(C)=C/C=C/C(C)=C/C(=O)O)c(C)c1C [Acitretin] + CCN1C(=O)N(c2c(F)c(OC)cc(OC)c2F)Cc2cnc3[nH]c(CN4CCOCC4)cc3c21 [pemigatinib],0.961
